Source: the supplement of paper PMC3334620
Over roughly 33,000 sequences, “E-score (-0.5 to 0.5)” has its median near -0.035; the highest 2% begin near 0.35. This is one part of the list.

biological target: T1, Pdr3 (UniProt P33200); assay: PBM E-score (8-mer binding enrichment) (E-score (-0.5 to 0.5)); higher = stronger / more preferred TF binding; most listed sequences are background and not binding sites; conditions: protein concentration: 200 nM; construct: GST-full length
T1 sequence: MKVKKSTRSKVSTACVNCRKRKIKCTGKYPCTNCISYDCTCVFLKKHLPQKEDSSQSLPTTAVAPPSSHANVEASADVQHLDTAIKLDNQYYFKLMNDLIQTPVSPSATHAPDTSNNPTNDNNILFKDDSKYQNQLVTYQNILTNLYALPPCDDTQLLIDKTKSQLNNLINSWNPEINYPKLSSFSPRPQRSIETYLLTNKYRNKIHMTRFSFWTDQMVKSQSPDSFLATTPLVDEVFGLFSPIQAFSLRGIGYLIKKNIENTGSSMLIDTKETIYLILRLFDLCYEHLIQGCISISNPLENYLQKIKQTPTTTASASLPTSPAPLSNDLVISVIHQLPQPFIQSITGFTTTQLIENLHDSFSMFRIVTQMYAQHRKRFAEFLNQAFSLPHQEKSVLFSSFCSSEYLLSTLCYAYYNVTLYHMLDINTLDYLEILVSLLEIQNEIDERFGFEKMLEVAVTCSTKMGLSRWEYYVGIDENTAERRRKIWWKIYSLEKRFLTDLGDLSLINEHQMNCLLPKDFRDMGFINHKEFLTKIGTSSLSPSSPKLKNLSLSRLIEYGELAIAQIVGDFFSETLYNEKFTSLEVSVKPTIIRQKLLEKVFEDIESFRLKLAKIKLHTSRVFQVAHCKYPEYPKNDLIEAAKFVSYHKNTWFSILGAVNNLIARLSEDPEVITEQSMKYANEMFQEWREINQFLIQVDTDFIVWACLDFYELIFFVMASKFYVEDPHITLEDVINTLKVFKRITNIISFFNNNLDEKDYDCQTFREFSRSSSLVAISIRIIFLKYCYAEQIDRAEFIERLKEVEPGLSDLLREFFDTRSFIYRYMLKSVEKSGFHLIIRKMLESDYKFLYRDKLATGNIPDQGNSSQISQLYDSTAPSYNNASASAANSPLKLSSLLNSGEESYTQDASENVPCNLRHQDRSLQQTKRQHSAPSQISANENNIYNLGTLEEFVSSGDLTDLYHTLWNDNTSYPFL
Experimental: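 Universal 'all 10-mer' protein binding microarrays (Agilent AMADID 015681) probed with GST-tagged S. cerevisiae TFs (full-length or DBD) made by in vitro transcription/translation (PURExpress), about 100-200 nM. Bound TF was detected with fluorescent anti-GST. Each ungapped 8-mer (which stands for itself and its reverse complement) is scored by the PBM enrichment score (E-score), a modified Wilcoxon-Mann-Whitney statistic from -0.5 to +0.5, computed with the Universal PBM Analysis Suite. Scale: above 0.35 generally sequence-specific binding.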

Sequence | PBM E-score
CATTTCCC | 0.203
CGTCCTAA | -0.14
GCGTGCAC | 0.0796
CGCGTTAC | 0.034
GACCTAGA | -0.115
CATAACGG | -0.0713
GTTAAAAC | -0.0999
TTCTAAAA | -0.0694
AAGATGCC | 0.0564
CTCCAAAG | -0.182
AGGGGAAC | -0.0871
ACTTTAGC | -0.0115
CCTACTCG | 0.101
CATAAACC | 0.0229
AGGTATGG | 0.0193
ATGTCTAC | -0.213
AAAAAACT | -0.245
GATACATC | -0.101
ATGTTGGA | 0.167
GCTTTCCA | -0.0892
GGTTTTCA | 0.0386
AAAATACA | -0.0643

Sequence | PBM E-score
CGAATAGC | -0.149
GAAGGGCA | 0.0377
CAGTCACC | -0.156
ACCTTGTG | -0.065
ATAACAAA | 0.0706
AGACAGGG | -0.102
ACAACTTA | -0.111
GTCCGTTA | 0.321
AAGTAGCA | -0.142
CCTGTCAG | -0.145
ACTGCGCC | -0.225
ATGGAACC | 0.0373
ACGGGTCT | 0.0949
AGGATTTC | 0.114
CTTCCTGC | -0.232
CAGTGCTA | 0.0103
AAATTAAG | 0.0725
CTATAACC | -0.218
CCATGCGG | 0.15
AGTTATTA | -0.0901
AGCCTGTG | -0.265
ATCTCTAC | -0.135

Sequence | PBM E-score
CACTGCCG | 0.255
GACTTTAA | -0.137
GTCATGCA | 0.00118
CCCCCACG | -0.191
ACATCGGA | 0.184
CATCTGTC | 0.0352
CCAGTCCA | -0.0149
CCCAAATC | -0.122
AACAGGAA | -0.218
AGCAGGTC | -0.0101
AGACTGCA | -0.408
CCAGGATC | 0.0238
ATCACTCG | -0.0866
AGCTGCAG | 0.109
GTTTTAGA | -0.0726
CCTAAAGG | -0.204
GCTCCTTA | -0.0521
TCGCCCCA | -0.0315
AACTACGA | -0.109
AAGCACTA | -0.144
CACTAGGA | -0.203
TATTGGCA | -0.0348

Sequence | PBM E-score
ATGTTAGA | -0.318
CTATTATA | -0.0347
CCACTACC | -0.0383
GGAGCGCC | 0.085
CCTCCGAC | 0.0584
CCCGAGCC | 0.265
CTAACACA | 0.0909
CTCTTTGC | -0.125
AACAGTTC | 0.117
GTTAACAA | 0.0822
CGGTGCAG | 0.0425
ACCTCTAC | 0.0123
GGACCCCA | 0.0742
GAGAGGTA | -0.195
CAACTTTC | 0.15
GTAGATTA | 0.194
CTAGACAC | -0.152
ATAGGCTA | -0.124
CCTAATTC | -0.0229
TGCAGGAA | 0.0197
